Drawing on PubChem BioAssay AID1491 (National Center for Advancing Translational Sciences (NCATS), 2009), this text covers Potency for one compound.

Records with an inconclusive call do not appear. Calls follow the shape of the dose curve; as a rule, active = well fitted inhibition curve with a large enough effect in the main read-out, with a control signal flat; inconclusive = small, poorly fitted or top-dose-only effect, or a change in a side signal; inactive = flat fitted curve, though single readings scatter. A number of entries come with more than one value. This is not the full list of results. The source may hold further records. The records of an entry are repeats across runs, samples, wells, individuals or studies.

The target in the assay is Neuropeptide S receptor (Homo sapiens) (UniProt Q6W5P4). The experiment in a line: Confirmation Concentration-Response Assay for Antagonists of the Neuropeptide S Receptor: cAMP Signal Transduction. The conditions noted are these: CHO-NPSR cells, cAMP TR-FRET, antagonist mode. From the text:
NIH Chemical Genomics Center [NCGC] NIH Molecular Libraries Probe Production centers Network [MLPCN] MLPCN Grant: X01-DA026210-01 Assay Submitter (PI): Heilig, Markus Alexander NCGC Assay Overview: Neuropeptide S receptor (NPSR), previously known as GPR154, is a recently de-orphanized G protein coupled receptor. Its endogenous ligand is the 20 amino acids peptide Neuropeptide S (NPS). […] NPS and its receptor are found in various tissues. Specifically they are highly expressed in brain areas that have been implicated in modulation of arousal, stress and anxiety. Central administration of NPS in mice produces an unusual profile of activity by inducing wakefulness and arousal, while at the same time suppressing anxiety. Therefore, NPSR may represent a novel drug target for the treatment of sleep and anxiety disorders. […] This change in intracellular cAMP level can be detected by a homogeneous LANCE cAMP assay based on the TR-FRET (time resolved fluorescence resonance energy transfer) between a europium-labeled cAMP tracer complex and a cAMP-specific antibody labeled with Alexa Fluor 647. […] Both emission signals from the FRET donor (620 nm) and the acceptor (665 nm) can be detected by a plate reader in the TRF mode. Expression of result in fluorescence ratio (665 nm/620 nm) helps to normalize differences due to cell density and reagent dispensing. […]
Potency is read from the fitted curve at half-maximal effect.

Chain of UniProt Q6W5P4 (Q6W5P4 whole entry, looked up): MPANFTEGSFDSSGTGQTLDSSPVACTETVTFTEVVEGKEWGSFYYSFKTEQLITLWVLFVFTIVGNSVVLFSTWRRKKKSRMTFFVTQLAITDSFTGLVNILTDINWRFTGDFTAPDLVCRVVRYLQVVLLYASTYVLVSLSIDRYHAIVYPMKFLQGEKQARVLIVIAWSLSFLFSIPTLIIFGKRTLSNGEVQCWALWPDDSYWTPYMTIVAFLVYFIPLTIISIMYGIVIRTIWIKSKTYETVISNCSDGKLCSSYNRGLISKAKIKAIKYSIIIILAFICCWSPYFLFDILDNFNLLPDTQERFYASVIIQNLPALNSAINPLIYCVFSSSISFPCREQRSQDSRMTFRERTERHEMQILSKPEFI

As to `COc1ccc(C2c3c(ncn(CCN4CCOCC4)c3=N)Oc3ccc4ccccc4c32)cc1OC` (stereo unspecified), the Potency entry was “active: 1.58, 2.24, 1.26, 12.6 µM [separate samples]”.
